{
  "source": "PubChem BioAssay AID282",
  "about": "(DTP/NCI, 2004)",
  "test_system": "BDF1 mice, L1210 terephthalanilide-resistant leukemia ip, survival T/C",
  "assay": "NCI In Vivo Anticancer Drug Screen. Data for tumor model L1210 Leukemia resistant to A Terephthalanilide; NSC 38280 (intraperitoneal) in B6D2F1 (BDF1) mice",
  "conditions": "endpoint: mean survival time, higher = longer survival",
  "method": "The antitumor activity of compounds was measured in mice bearing transplantable tumors. Survival or tumor size were measured and the results are expressed as the measurement made in the treated group (T) divided by the measurement made in the vehicle treated control group (C). The tumor model used in this assay is L1210 Leukemia resistant to A Terephthalanilide; NSC 38280 (intraperitoneal) in B6D2F1 (BDF1) mice",
  "key": {"[1]": {"conditions": "dose: 100.0 mg/kg/injection, schedule: Q01DX010 (ip), vehicle: saline"}},
  "note": "Inconclusive results and toxic doses are left out. The source holds more than one record for some entries. The list is limited to them. The source may hold further records. Values that stand side by side repeat one measurement (runs, samples, wells, individuals or studies).",
  "data": [
    {"smiles": "COc1cc(-c2ccc(Nc3ccccc3C(=O)O)c(OC)c2)ccc1Nc1ccccc1C(=O)O", "values": [
      {"measurement": "T/C", "setting": "[1]", "value": "92 % of control and 150 % of control"}
    ]},
    {"smiles": "Cc1cc(N(CCCl)CCCl)ccc1N=Nc1ccccc1C(=O)O", "values": [
      {"measurement": "T/C", "setting": "dose: 3.12 mg/kg/injection, schedule: Q01DX Z (ip), vehicle: carboxymethylcellulose (CMC)", "value": "119 % of control and 162 % of control"}
    ]},
    {"smiles": "CN(C)/N=N/c1nc[nH]c1C(N)=O", "values": [
      {"measurement": "T/C", "setting": "[1]", "value": "109 % of control and 170 % of control"}
    ]},
    {"smiles": "O=c1cnn(C2OC(CO)C(O)C2O)c(=O)[nH]1", "note": "(stereo not given)", "values": [
      {"measurement": "T/C", "setting": "dose: 400.0 mg/kg/injection, schedule: Q01DX010 (ip), vehicle: saline", "value": "107 % of control, 154 % of control, 168 % of control"}
    ]},
    {"smiles": "O=C(Nc1ccc(NC2=NCCN2)cc1)c1ccc(C(=O)Nc2ccc(NC3=NCCN3)cc2)cc1", "values": [
      {"measurement": "T/C", "setting": "dose: 8.0 mg/kg/injection, schedule: Q01DX010 (ip), vehicle: saline", "value": "111 % of control and 165 % of control"}
    ]}
  ]
}
